Results: PMC12136788
The other results are listed elsewhere or left out.

T1: UNK ZnF1-3 (human, UniProt Q9C0B0 31-174)
T1 sequence: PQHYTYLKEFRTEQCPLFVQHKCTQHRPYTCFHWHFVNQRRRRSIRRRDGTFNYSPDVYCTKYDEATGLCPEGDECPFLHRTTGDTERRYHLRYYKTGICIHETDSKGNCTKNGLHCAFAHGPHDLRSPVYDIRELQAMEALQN

B1: chr3:148522152:148522153:-_ENSMUSG00000028184_ENSMUST00000106128|mus_mus|motif|central (ssRNA)
RNA: GGGAGUUCUACAGUCCGACGAUCGGGUGACGUAUCGUGGUAGUUGGCAUAGUUGAUGAUAGCCUCGCCGCUCUUGAUUCGGGUCCUCAAGUCAAACUUAACAAUGUUUCUGGUUCUUUCCUUGUUAAAGAAGACGGCUCCAUCCAACAGAGGAUUGAGCAUCA
B2: chr3:57561359:57561360:-_ENSG00000168374_ENST00000303436|hu_mus|FALSE|FALSE (ssRNA)
RNA: GGGAGUUCUACAGUCCGACGAUCCUUGUCUGUCAUCUCACUGAUGGCCAUAGCGUUUGGCAGAUCCUGUUUGUUUGCAAAAAGGAGCAGCACUGCAUCCUGCAGCUCAUCUUCCAGAAGCAUUUUCUGCAGCACAGCUGCUCCCAACAGAGGAUUGAGCAUCA
B3: chr6:13820011:13820012:-_ENSMUSG00000052419_ENSMUST00000155856|mus_hu|FALSE|FALSE (ssRNA)
RNA: GGGAGUUCUACAGUCCGACGAUCUAAAUGUUUUUUCCCUAGAGAUAAAAGUUUUCCUUUUUGCCUGACUCUCUGAUAUCUAAAUAUAAUAUUAACUUGGGAGACAACAAAACAAAAAUCUAAUUUAAAAGACUCCUCAACGAUCAACAGAGGAUUGAGCAUCA
B4: chr7:65705475:65705476:+_ENSG00000169902_ENST00000304842|hu_hu|hu_hu_hu_mus_True|68_108 (ssRNA)
RNA: GGGAGUUCUACAGUCCGACGAUCUCUAUCCGGUGAUGGCACUCCAUGGCAUGCUGGCCCAGGUAAAACACAGUCACAGAACUAAUCACCAGACACGCCAAGAGUAAGUUCUGCUUCAGCUUCCCAACCAUCUUGAUGUGGUUACAACAGAGGAUUGAGCAUCA
B5: 22790091_22790211_509_ncRNA_ENSMUSG00000026784_ENSMUST00000139472|mouse|control|control (ssRNA)
RNA: GGGAGUUCUACAGUCCGACGAUCAUGACUGGAGUUUGAUGAAGAAAGAACUGACUACUCAGACACCUGUCUCCCCACCGUGUGUGACACACACUAUAAGUCCCUCAGUAAUGAUGACAAUGUCUUGUAUCCUCUUCAUUUUUACAACAGAGGAUUGAGCAUCA
B6: chr2:84898283:84898284:+_ENSMUSG00000033955_ENSMUST00000148682|mus_hu|FALSE|FALSE (ssRNA)
RNA: GGGAGUUCUACAGUCCGACGAUCUGAGGGAAUCCAGGGCUUGGAAAUAUCAGCAGGUAGCUCCGAGCUGGCUGCCUUAGCCAGGUCCCCGUUGAAGGCCAGGUCGGAAGGAAGGCUCCUCUCCUCAGGGGUCUUGCUGUGCUCCAACAGAGGAUUGAGCAUCA
B7: 31085571_31085691_2166_3pUTR_ENSG00000092140_ENST00000206595|human|control|control (ssRNA)
RNA: GGGAGUUCUACAGUCCGACGAUCUUUCUUAUGGUGAAGUCCAUAUUUUCUUGAAACUCUUUAUAUGUAUUGGUGAUGGGAAUUGCUAAACAGUUAUUACACUUGUUUCCAACAGGAAAAUCCACAUGCAGACACUCAAUUGAACAACAGAGGAUUGAGCAUCA
B8: chr7:7612872:7612873:+_ENSG00000164654_ENST00000405785|hu_hu|FALSE|FALSE (ssRNA)
RNA: GGGAGUUCUACAGUCCGACGAUCUUUUGUUAAGGGUUUUGGUUGCUCAGUCAAUGUCAAAACUGGCUUCUCAAAUUUUCUAAGAUCCCAUAUUGCAACCUGACCUUCAUAGAAGGAAGCAACACGAUCGUGGAAAUAUGGGUCCAACAGAGGAUUGAGCAUCA
B9: chr17:65740002:65740003:+_ENSG00000130935_ENST00000581375|hu_hu|hu_hu_hu_mus_False|8_78 (ssRNA)
RNA: GGGAGUUCUACAGUCCGACGAUCAACAAAUCUUUCUUCCCUGGACGAACAGGAAGACAUAAAAGAGAAAAAAUAUAUAUCCAUCAAGUUAGGUGUGGUGGCCACACCUUUACUCCCAGCACUUUGGGAAUAUAAUCUCUGAGUCAACAGAGGAUUGAGCAUCA
B10: chrX:71549400:71549401:+_ENSMUSG00000019087_ENSMUST00000019231|mus_hu|mus_mus_mus_hu_False|28_28 (ssRNA)
RNA: GGGAGUUCUACAGUCCGACGAUCGCAGUAGGAAGAGGGAAGCUCUUCAGUCCAGUGCGCUGCAGGGUGGGAAAGCAACAACACGGACACCGUCCCACCCUCAACCCUCUCAGGUGUACAGGGUCACACAAUCUGGGUCAAAGACAACAGAGGAUUGAGCAUCA
B11: chr6:136599331:136599332:-_ENSG00000029363_ENST00000527536|hu_hu|motif|central (ssRNA)
RNA: GGGAGUUCUACAGUCCGACGAUCGGGAGCAUCAGAGCAAGAUGAACUCUGACUAGGUGGUGUAGCAAUAGGUGAAGGACGGUGGGGUGAUCUAGGACUAUUAUCAUAAGCUGAAAGGCCAGGCCAAAUAUCACCGGAUGUGGCCAACAGAGGAUUGAGCAUCA
B12: 10778163_10778283_2511_3pUTR_ENSMUSG00000024294_ENSMUST00000052838|mouse|control|control (ssRNA)
RNA: GGGAGUUCUACAGUCCGACGAUCAGUGCAGCAUGGUGCAGGGCAUUGAACCCGUUAUUGUUCGUGAUGGUCACAUCUGCUCCAGCUUCCAGAAGAACUGCCAGAAUGUCAUCCCGUUUCUUACUUAUGGCAUCAUGGAGAGGGCAACAGAGGAUUGAGCAUCA
B13: 87593544_87593664_207_3pUTR_ENSG00000163629_ENST00000511467|human|control|control (ssRNA)
RNA: GGGAGUUCUACAGUCCGACGAUCGAUUUUGAAGAACCUCUGGUGCAGUGAAUGCUCGAAGAUCCUGAUUGGAAAUAUUUUCAUCUGUAAAUGACACACUACCAGAUGGCAGCAACAGCAGAGACCAUGGAGAAAUGAUGAAGCCAACAGAGGAUUGAGCAUCA
B14: chr12:39756943:39756944:-_ENSG00000139116_ENST00000544797|hu_mus|hu_hu_hu_mus_False|38_68 (ssRNA)
RNA: GGGAGUUCUACAGUCCGACGAUCGGUUUGGCUGUUACCCCCAAGGGAAUCCUGCAAGAGUCUUGUCAGCUUGGAAUCUCUGUAAGGGACAUGGGUGGCCCUCUUGCUCUUGUCCCCCAAGGCGCUGAUUACAUUCCCAAGAGCCAACAGAGGAUUGAGCAUCA

The binders below were run against T1, UNK ZnF1-3 (assay: nsRBNS (natural sequence RNA bind-n-seq); RBNS binding buffer (assumed for nsRBNS): 25 mM Tris pH 7.5, 150 mM KCl, 3 mM MgCl2, 0.01% Triton X-100, 500 ug/ml BSA, 20 U/ml SUPERase-In, 4 C; UNK is unkempt and MSI1 is Musashi-1; names of the RNAs are library labels; protein concentration not given here; high values mean tight binding).

First: B1
Second: B2
The binding signal of the first is higher: 0.4 enrichment R for the first, 0.391 enrichment R for the second.

First: B3
Second: B4
The binding signal of the first is higher: 1.64 enrichment R for the first, 0.564 enrichment R for the second.

Going from B5 to B6, the binding signal falls from 0.985 enrichment R to 0.718 enrichment R.

Compared with B7, B8 is higher in binding signal: 0.725 enrichment R for the first, 1.04 enrichment R for the second.

Compared with B9, B10 is lower in binding signal: 1.02 enrichment R for the first, 0.938 enrichment R for the second.

First: B11
Second: B12
The binding signal of the first is higher: 1.83 enrichment R for the first, 1.2 enrichment R for the second.

First: B13
Second: B14
The binding signal of the first is higher: 1.87 enrichment R for the first, 0.866 enrichment R for the second.
